According to PubChem BioAssay AID485297 (National Center for Advancing Translational Sciences (NCATS), 2010):
Among all 320,000 compounds or so, about 9,100 (2.8%) were called active. Inconclusive results, whose numbers are uncertain, are shown with a selection of clear calls. Calls come from the whole dose curve; as a rule, active = well fitted activation curve with a large enough effect; inconclusive = small, poorly fitted or top-dose-only effect; inactive = no such curve, though single readings can be large or run the other way. Potencies of inconclusive entries are left out as doubtful fits.

Experiment: qHTS Assay for Rab9 Promoter Activators; note: nearly all actives have a fitted effect of over 60% in size; for activation, negative = inhibition: % of control where 0% means no effect
Conditions: Huh7 Rab9 promoter-luciferase reporter, luminescence, 24 h; series mostly up to 9.22 µM; activation, negative = inhibition: at the top concentration
Procedure, shortened: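 Huh7 cells stably carrying a Rab9 promoter-luciferase reporter, 1500 cells per well in OP-MEM I with 10% FBS, treated with compound 24 hours at 37C. Luciferase activity read by luminescence after 10 minutes with Amplite reagent.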
Potency is the fitted concentration of half-maximal effect; tags give direction and shape of the fitted curve.

SMILES | Potency | activation, negative = inhibition
CC(C)(C)c1ccc(-c2nnc(N)s2)cc1 | active: 1.41 µM | 
Oc1oc(-c2ccccc2Br)nc1/C=N/c1ccccn1 | inconclusive [activator, partial curve] | 
COc1ccc(N2Cc3ccc(OC)c(OC)c3C2=O)cc1 | inconclusive [activator, partial curve] | 
FC(F)(F)c1ccc(Nc2nnnc3ccccc23)cc1 | inconclusive [activator, partial curve] | 
COc1ccc(OCc2cc(C(=O)N(C)C3CCOCC3)no2)c2ccccc12 | inconclusive [activator, single point] | 
Cc1c(C(=O)N2CCc3ccccc3C2)oc2ccc(Br)cc12 | inconclusive [activator, single point] | 
CC(=O)c1sc(N/N=C\c2ccccc2O)nc1C | inconclusive [activator, single point] | 
COc1cccc2cc(CC(=O)c3ccccc3)c(=O)oc12 | inconclusive [activator, partial curve] | 
COc1cc(/C=C(\C#N)C(=O)N2CCOCC2)ccc1OCc1ccccc1 |  | inactive: 0.0042%
Cc1ccc(-c2cc(-c3ccccc3O)nc(N/N=C/c3cccnc3)n2)cc1 |  | inactive: 25.5%
COc1ccc(C2C3=C(CCCC3=O)Nc3nc(-c4cc(OC)c(OC)c(OC)c4)nn32)cc1OC (stereo unspecified) |  | inactive: -14%
NS(=O)(=O)c1ccc2nc(NC(=O)Nc3ccccc3F)sc2c1 | active: 0.398 µM | 
O=c1[nH]c2ccccc2c2cn(-c3ccccc3)nc12 | inconclusive [activator, single point] | 
Cc1cnc(C(=O)Nc2nnc(C(C)C)s2)cn1 | active: 2.82 µM | 
COc1ccc(/C=C/C(=O)Nc2cc(C)nn2-c2nc3ccccc3[nH]2)cc1 | inconclusive [activator, single point] | 
CCc1ccc(NC(=O)c2ccc3nc(N)sc3c2)cc1 | inconclusive [activator, partial curve] | 
N/C(=N\OC(=O)COc1ccc(Br)cc1Cl)c1cccnc1 | inconclusive [activator, single point] | 
Cc1ccccc1NC(=O)c1ccc2ccccc2c1 | inconclusive [activator, partial curve] | 
CC(C)(C)c1ccc(C(=O)/C=C2\NC(=O)CS2)cc1 | active: 0.631 µM | 
COC(=O)CCn1nnc(-c2cccs2)n1 |  | inactive: -4.35%
O=C(NNC(=O)c1cc2c(s1)CCCC2)c1ccccc1 | inconclusive [activator, partial curve] | 
